In patent US20250092146A1, “ANTI-CCR8 ANTIBODIES, CONJUGATES, AND USES THEREOF” (Abilita Bio, Inc., priority 2023, published 2025):

Assays:
hCCR8 [1] = molecular target: T1, hCCR8 (Homo sapiens, UniProt P51685); experiment: Flow cytometry binding of VHH-Fc fusion antibodies to hCCR8 on stably transfected HEK293 cells; details: Table 10; for EC50: parental and humanized VHH-Fc, HEK293 cells expressing human CCR8; for Bmax (%): normalized relative to respective parental clone
T1 construct: expressed in transfected cells
Experimental: VHH-Fc fusion antibodies were evaluated for their ability to bind to hCCR8 on stably transfected HEK293 cells by means of flow cytometry. Cells were incubated with different concentrations of the bivalent VHH-Fc fusions for 60 minutes at 4° C., followed by two washes with FACS buffer, followed by 30 minutes incubation at 4° C. with the Zenon R-Phycoerythrin Anti-human IgG (ThermoFisher Scientific, #Z-25455), and two additional washing steps. Data were plotted and fit using GraphPad Prism software. EC50 and Bmax values individual antibodies were calculated from the resulting dose-response curves. Bivalent VHH-Fc fusions (Seq ID NOs: 31, 33, and 87-103) of 19 different VHH domains (SEQ ID NOs: 27, 28, and 70-86) were tested for cell binding and results are shown in Table 7. […]
VHH-Fc fusion DNA constructs were then generated comprising encoding humanized VHH sequences (SEQ ID NOs: 106-111) fused in frame to the human IgG1 (SEQ ID NO: 34) directly to the short hinge sequence in the pFuse expression vector, and were expressed, purified and analyzed for binding to HEK293 cells expressing human CCR8 as in Example 5. Binding curves for VHH-Fc antibodies comprised of parental VHH-1 and the humanized VHH derivatives VHH-1.2-Fc and VHH-1.3-Fc are shown in FIG. 9A. Binding curves for VHH-Fc antibodies comprised of parental VHH-2 and the humanized VHH derivatives VHH-2-Fc, VHH-2.2-Fc and VHH-2.3-Fc, are shown in FIG. 9B. Cell binding EC50 values, normalized Bmax (relative to respective parental clone) data and humanizing mutations are shown in Table 10 below.
Approaches such as in vitro affinity maturation and rational mutagenesis can be performed to regain binding affinity and/or stability lost through humanization. In vitro affinity maturation generally involves building and amino acid substitution library where amino acid positions are varied across the CDRs and/or framework at a defined set of positions using sets of amino acids chosen to introduce new chemical diversity. The paratope residues within the CDR regions are of course key to antigen binding and care must be taken not to disrupt important structures while attempting to evolve improve antibody behavior. One approach to identify positions that are important to the maintenance of binding properties is to perform paratope mapping using single scanning alanine substitutions across antibody CDR regions. In this approach, residues that are critical to the maintenance of antibody binding to the antigen can be identified and at the same time permissive sites can be identified where it may be possible to make substitutions of other amino acids desirable for subsequent affinity maturation library construction. Site directed mutagenesis was used to make single alanine substitutions at each residue in the CDRs of VHH-1 (SEQ ID NO: 27) and VHH-2 (SEQ ID NO: 28). Changes in VHH-1 CDR amino acids to alanine are indicated in Table 11 (SEQ ID NOs: 112-137) and for VHH-2 CDRs (SEQ ID NO: 138-162) in Table 12. Mutation positions and residue changes to alanine with respect to the in the parental VHH sequences are referenced by their IMGT position. VHH domains containing the indicated modified CDR-1, CDR-2 or CDR-3 domains were used to construct Fc fusions by direct grafting to the short hinge of the human Fc domain (SEQ ID NO: 34). VHH-Fc constructs were expressed, purified and analyzed for binding to HEK293 cells expressing hCCR8 and the results are reported in Table 11 and Table 12. EC50 values are reported for each Fc fusion antibody containing a modified CDR, along with its respective Bmax value normalized to the to the matched wild type VHH-1-Fc or VHH-2-Fc fusion antibody.

[2] = tested on: hCCR8, Chimera A and Chimera B (hCCR8/hCCR1 chimeras); experiment: Epitope mapping by flow cytometry on HEK293T cells expressing hCCR8 or hCCR8/hCCR1 chimeras; type: binding, human; details: hCCR8 vs Chimera A vs Chimera B, MFI comparison
Excerpt: Determination of binding epitope location on hCCR8 was done for representative VHH-Fc antibodies by flow cytometry analysis using HEK293T cells expressing hCCR8 or two receptor chimeras comprised of combined sequence elements taken from hCCR8 (SEQ ID NO: 37) and hCCR1 (SEQ ID NO: 39). In the first, Chimera A based on hCCR8, the N-terminal region of the receptor (SEQ ID NO: 38) was replaced with a sequence encoding the N-terminal region of hCCR1 (SEQ ID NO: 40). In Chimera B based on hCCR1, the N-terminal region of the receptor was replaced by the sequence encoding the hCCR8 N-terminus (SEQ ID NO: 38).

hCCR8 [3] = molecular target: T1, hCCR8; experiment: VHH-Fc binding to hCCR8-expressing HEK293 cells in presence or absence of ML604086 or CCL1; details: for cell binding in presence of 10 μM ML604086: HEK293 cells expressing hCCR8, 10 μM ML604086
Experimental: VHH-Fc fusions were evaluated for their ability to bind to hCCR8 expressed on cells in the presence and absence of either the chemokine antagonist CCL1 or the potent small molecule antagonist ML604086. HEK293 cells expressing hCCR8 were incubated with a fixed concentration (10 nM) of VHH-1-Fc (SEQ ID NO: 31) in the presence of different concentrations ML604086 (FIG. 4A) or in a separate experiment, using fixed concentrations of either ML604086 or CCL1 (FIG. 4B). Binding studies were conducted on hCCR8 expressing cells for 60 minutes at 4° C., followed by two washes and then 30 minutes incubation at 4° C. with the Zenon R-Phycoerythrin Anti-human IgG secondary antibody (ThermoFisher Scientific, #Z-25455). Binding to cells was assessed by flow cytometry. […] The VHH-Fc clones, VHH-1-Fc (SEQ ID NO: 31), VHH-9-Fc (SEQ ID NO: 91), VHH-10-Fc (SEQ ID NO: 92) and VHH-12-Fc (SEQ ID NO: 94) were also tested for binding to HEK293 cells expressing hCCR8 as described above, in the presence or absence of 10 μM added ML604086 (FIG. 4C).

hCCR8 [4] = molecular target: T1, hCCR8; experiment: Inhibition of CCL1-induced β-arrestin recruitment (DiscoverX PathHunter eXpress); type: cell-based; details: CCL1 at EC80; for IC50 values (in words): FIG. 5
Excerpt: Agonist-induced internalization of hCCR8 and other GPCRs is a regulatory mechanism often driven by engagement of the activated receptor by β-arrestin. Antagonism of this pathway is desirable to prevent the loss of bound anti-CCR8 antibodies from the cell surface with a concomitant loss efficacy. We characterized VHH-Fc molecules for the inhibition of CCL1-induced β-arrestin recruitment (DiscoverX PathHunter® eXpress, Eurofins) (FIG. 5). A fixed concentration (EC80) of the hCCR8 agonist CCL1 (R&D Systems, #272-I) was used to stimulate receptor β-arrestin recruitment. Multipoint dilution series of the VHH-Fc molecules were mixed with the assay components to inhibit CCL1 activation of CCR8.
Selected optimized VHH-Fc molecules were evaluated for functional inhibition of CCL1-induced hCCR8 activation and recruitment of β-arrestin (DiscoverX PathHunter® eXpress, Eurofins) signaling (FIG. 12). In this assay, a fixed concentration (EC80) of the hCCR8 agonist CCL1 (R&D Systems, #272-I) was used to stimulate receptor b-arrestin signaling. Multipoint dilution series of individual VHH-Fc molecules were mixed with the assay components to generate inhibition curves, from which the concentration necessary to achieve 50% inhibition (IC50) could be determined. Data were plotted and fit using GraphPad Prism software and IC50 values individual antibodies were calculated from the resulting dose-response curves. Fc fusions of VHH-1 (SEQ ID NO: 27), VHH-1.3 (SEQ ID NO: 108), VHH-1.3-19 (SEQ ID NO: 204), and VHH-2.3-2 (SEQ ID NO: 208) were evaluated and found to be potent inhibitors as shown by the sub-nanomolar potency values listed in Table 17.

T1 sequence (P51685 whole entry, the tested form may be a part): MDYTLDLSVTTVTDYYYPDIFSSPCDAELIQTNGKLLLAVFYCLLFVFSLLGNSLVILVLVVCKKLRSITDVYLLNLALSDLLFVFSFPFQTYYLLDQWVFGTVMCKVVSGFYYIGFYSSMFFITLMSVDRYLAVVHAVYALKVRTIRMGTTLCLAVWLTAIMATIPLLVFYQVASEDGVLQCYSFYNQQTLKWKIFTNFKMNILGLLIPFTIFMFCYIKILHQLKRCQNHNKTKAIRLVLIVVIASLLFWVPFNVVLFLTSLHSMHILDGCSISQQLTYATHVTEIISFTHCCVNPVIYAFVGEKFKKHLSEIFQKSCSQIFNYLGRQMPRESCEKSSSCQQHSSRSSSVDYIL

Row | Molecule | EC50 (hCCR8 [1]) | cell binding in presence of 10 μM ML604086 (hCCR8 [3]) | further results
1 | VHH-1-Fc: VHH-1 fused to short hinge of human IgG1 Fc, SEQ ID NO: 31 (protein) QVQLQESGGGLVQAGGSLRLSCVASGSTSSIRRIGWYRQAPGKQRELVARFSSGGGTNYADFVKGRFTISGDNAKNTMYLQMNSLKPEDTAVYYCSARRLLGTSRVDYWGQGTQVTVSS[human IgG1 Fc not given here] | 1.96 nM | completely blocked | binding epitope location on hCCR8 [2]: bound exclusively to the hCCR8 TMD; effect of CCL1 on antibody binding to hCCR8 (hCCR8 [3]; 10 nM antibody, highest CCL1 concentration): completely prevent binding; effect of ML604086 on antibody binding to hCCR8 (hCCR8 [3]; 10 nM antibody, highest ML604086 concentration): completely prevent binding; IC50 values (in words) (hCCR8 [4]): sub-nanomolar
2 | VHH-1.2-Fc: VHH-1.2 (SEQ ID NO: 107) fused to human IgG1 Fc (protein) QVQLQESGGGLVQAGGSLRLSCVASGSTSSIRRIGWYRQAPGKQRELVARFTSGGGTNYADFVKGRFTISGDNAKNTMYLQMNSLKPEDTAVYYCSARRLLGTSRVDSWGQGTQVTVSS[human IgG1 Fc not given here] | 2.66 nM |  | Bmax (%) (hCCR8 [1]): 119.3%
3 | VHH-2-Fc: VHH-2 fused to short hinge of human IgG1 Fc, SEQ ID NO: 33 (protein) QVQLQESGGGLVQAGGSLRLTCAVSGSTSTINRFAWYRQAPGKQRELVAATSSRTSPNYADSVKGRFRFSRDNARSAVYLQMDNLRPEDTAVYFCQARMAMGSSQVVYWGLGTQVTVSS[human IgG1 Fc not given here] | 0.78 nM |  | binding epitope location on hCCR8 [2]: bound exclusively to the hCCR8 TMD; IC50 values (in words) (hCCR8 [4]): sub-nanomolar
4 | VHH-1.3-Fc: VHH-1.3 (SEQ ID NO: 108) fused to human IgG1 Fc (protein) QVQLQESGGGLVQAGGSLRLTCAVSGSTSTINRFAWYRQAPGKQRELVAATSSRTSPNYADSVKGRFRFSRDNARSAVYLQMDNLRPEDTAVYFCNARMAMGSSQVVYWGLGTQVTVSS[human IgG1 Fc not given here] | 1.79 nM |  | Bmax (%) (hCCR8 [1]): 115.5%; IC50 (hCCR8 [4]; Table 17): 0.26 nM

The next lines start with results.

Row | EC50 (hCCR8 [1]) | cell binding in presence of 10 μM ML604086 (hCCR8 [3]) | Molecule | further results
5 | 2.12 nM |  | VHH-2.2-Fc: VHH-2.2 (SEQ ID NO: 110) fused to human IgG1 Fc (protein) EVQLVESGGGLVQPGGSLRLSCAVSGSTSTINRFAWYRQAPGKGLEWVAATSSRTSPNYADSVKGRFTFSRDNSKNTVYLQMNSLRAEDTAVYYCQARMAMGSSQVVYWGQGTTVTVSS[human IgG1 Fc not given here] | 
6 | 2.22 nM |  | VHH-2.3-Fc: VHH-2.3 (SEQ ID NO: 111) fused to human IgG1 Fc (protein) EVQLVESGGGLVQPGGSLRLSCAVSGSTSTINRFAWYRQAPGKGRELVAATSSRTSPNYADSVKGRFTFSRDNSKNTVYLQMNSLRAEDTAVYYCQARMAMGSSQVVYWGQGTTVTVSS[human IgG1 Fc not given here] | 
7 |  | completely blocked | VHH-10-Fc: VHH-Fc fusion antibody, SEQ ID NO: 92 (protein) QVQLQESGGGLVQAGGSLRLSCVASGSTSSIRRIGWYRQAPGKQRELVARFSSGGSTNYADFVKGRFTISGDNAKNTMYLQMNSLKPEDTAVYYCSARRLLGTSRVNYWGQGTQVTVSS[human IgG1 Fc not given here] | 
8 |  | completely blocked | VHH-12-Fc: VHH-Fc fusion antibody, SEQ ID NO: 94 (protein) QVQLQESGGGLVQAGGSLRLSCVASGSTSSIRRIGWYRQAPGKQRELVARFTSGGGTNYADFVKGRFTISGDNAKNTMYLQMNSLKPEDTAVYYCSARRLLGTSRVDSWGQGTQVTVSS[human IgG1 Fc not given here] | 
9 |  | completely blocked | VHH-9-Fc: VHH-Fc fusion antibody, SEQ ID NO: 91 (protein) QVQLQESGGGLVQAGGSLRLSCVASGSTSSIRRIGWYRQAPGKQRELVARFSSGGSTNYADFVKGRFTISGDNAKNTMYLQMNSLKPEDTAVYYCSARRLLGTSRYDYWGQGTQVTVSS[human IgG1 Fc not given here] | 
